Reference: publication PMC4336329 (PLoS ONE, 2015)
The whole screen tested about 310,000 compounds, of which about 14,000 (4.5%) showed an effect of 50% or more. Effects have a minus sign here. Some of the results follow.

target: human ether-à-go-go-related gene (hERG) potassium channel (human, UniProt Q12809); assay: primary screen, population patch clamp on CHO cells stably expressing hERG
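Further: peak tail current of the secondary pulse compared with the same well before compound.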

Chain of human ether-à-go-go-related gene (hERG) potassium channel (Q12809 whole entry, looked up): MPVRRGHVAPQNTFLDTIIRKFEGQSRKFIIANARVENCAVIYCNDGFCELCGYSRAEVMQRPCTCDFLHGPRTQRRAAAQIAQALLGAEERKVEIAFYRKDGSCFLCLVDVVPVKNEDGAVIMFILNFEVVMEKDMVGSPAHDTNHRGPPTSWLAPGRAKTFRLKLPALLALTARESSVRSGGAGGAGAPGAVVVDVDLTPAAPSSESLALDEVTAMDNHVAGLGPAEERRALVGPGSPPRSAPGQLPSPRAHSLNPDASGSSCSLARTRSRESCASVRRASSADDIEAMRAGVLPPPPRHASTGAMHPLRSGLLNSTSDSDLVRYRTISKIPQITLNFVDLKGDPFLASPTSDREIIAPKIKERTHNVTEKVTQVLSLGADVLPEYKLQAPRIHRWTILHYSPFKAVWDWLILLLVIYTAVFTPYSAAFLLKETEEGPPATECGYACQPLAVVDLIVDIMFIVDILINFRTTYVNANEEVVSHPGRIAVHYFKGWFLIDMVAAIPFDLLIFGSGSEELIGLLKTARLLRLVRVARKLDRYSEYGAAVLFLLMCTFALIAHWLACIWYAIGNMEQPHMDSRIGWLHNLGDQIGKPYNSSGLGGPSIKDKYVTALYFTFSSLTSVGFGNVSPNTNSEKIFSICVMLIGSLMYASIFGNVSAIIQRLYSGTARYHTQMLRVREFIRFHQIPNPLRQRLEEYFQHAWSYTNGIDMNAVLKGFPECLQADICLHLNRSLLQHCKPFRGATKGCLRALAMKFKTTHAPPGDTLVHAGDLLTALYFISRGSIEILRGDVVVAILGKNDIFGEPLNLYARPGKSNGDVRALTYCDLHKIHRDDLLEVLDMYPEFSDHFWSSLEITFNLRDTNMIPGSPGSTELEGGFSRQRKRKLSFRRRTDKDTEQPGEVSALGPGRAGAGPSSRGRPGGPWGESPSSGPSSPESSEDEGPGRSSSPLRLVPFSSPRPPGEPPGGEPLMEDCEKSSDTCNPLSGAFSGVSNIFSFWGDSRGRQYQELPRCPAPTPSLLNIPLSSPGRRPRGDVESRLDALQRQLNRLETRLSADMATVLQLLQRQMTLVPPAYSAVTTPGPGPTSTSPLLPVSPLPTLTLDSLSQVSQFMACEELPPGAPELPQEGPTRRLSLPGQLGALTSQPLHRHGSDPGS

Row | SMILES | hERG current change (%, negative = inhibition) at 10uM [%]
1 | NC(=O)c1ccc2c(=O)c(O)c(-c3cc(Cl)c(N)c(Cl)c3)[nH]c2c1 | -5.41
2 | CCOc1ccc(CN2CCNC(=O)C2CC(=O)NCCCOc2cccnc2)cc1 (stereo not drawn) | 12
3 | Cc1ccc(-n2nc3c(N4CCC(C(=O)N5CCCCCC5)CC4)nnc(C)c3c2C)cc1 | -68.7
4 | O=C(NNC(=O)c1ccccc1O)c1ccc(Cl)cc1 | 12
5 | O=C1N[C@H](Cc2ccccc2)C(=O)N[C@H]1Cc1cn(S(=O)(=O)c2ccccc2)c2ccccc12 | 13.1
6 | CCCNC(=S)Nc1ccc(S(N)(=O)=O)cc1 | 18.2
7 | COC(=O)c1cc(COc2ccc3ccc(=O)oc3c2)c(C)o1 | 21.2
8 | COc1ccccc1-c1nnc(NC(=O)c2ccc3ncsc3c2)o1 | -9.39
9 | O=C(c1cccc(F)c1)N1CCN(C(=O)c2cc(-c3ccc(Cl)cc3Cl)on2)CC1 | -22.2
10 | CCOc1cc(C2NC(=O)NC(C)=C2C(=O)OCC2CCCCC2)ccc1O (stereo not drawn) | 7.07
11 | O=C(NCc1ccncc1)c1ccccc1Nc1ccc(SC(F)F)cc1 | -63.9
12 | Cc1ccc(N2C(=O)C3C4C=CC(CNC(=S)N5CCN(c6ccccc6)CC5)(O4)C3C2=O)cc1 (stereo not drawn) | 8.77
13 | CCOc1ccc2oc(C(=O)N(C)CC(=O)Nc3ccc(OCC)c(OCC)c3)c(C)c2c1 | -44.2
14 | COCCCn1cc(C(=O)c2ccccc2OCC(=O)Nc2cccc(F)c2)cc(C#N)c1=O | -35.9
15 | CCOc1ccc(CCNS(=O)(=O)c2ccc3c(c2)N(C(C)=O)CCO3)cc1OCC | 3.84
16 | CCCc1cc(=O)n2[nH]c(NCc3ccccc3F)nc2n1 | 12.4
17 | Cc1ccc(O)c(NC(=O)c2cc(-c3cccs3)on2)c1 | 2.6
18 | O=S(=O)(Nc1nc2ccccc2nc1Cl)c1ccccc1 | 16.2
19 | O=C(c1cc2ccccc2o1)N1CCN(S(=O)(=O)c2cccs2)CC1 | -1.84
20 | COc1ccc(OC)c(S(=O)(=O)Nc2ccc3c(c2)C(=O)OC3)c1 | 14.1
21 | COCCCNc1nc2nonc2nc1N1CCN(Cc2cccc(C)c2)CC1 | -20
22 | Cc1nc2cc(NC(=O)c3ccco3)ccc2n1C | -0.994
23 | CCOC(=O)C1=C(N)OC(C)=C(C#N)C1c1ccco1 (stereo not drawn) | 3.82
24 | COc1ccc(Cl)cc1C(=O)OCC(=O)NCc1cccs1 | -28.1
25 | CCn1c(-c2ccco2)n[nH]c1=S | 12
26 | COc1cc(C2C(C(=O)c3ccc(C)o3)=C(O)C(=O)N2c2cc(C)on2)cc(Br)c1O (stereo not drawn) | 19.4
27 | O=C(COC(=O)CCC(=O)c1cccs1)Nc1ccc(Cl)cn1 | 5.94

Row | SMILES | hERG current change (%, negative = inhibition) at 10uM [%]
28 | O=C(Nc1ccc2c(c1)OCO2)c1cnc2n(c1=O)CCS2 | -6.5
29 | COc1cc(C(=O)OCC(=O)Nc2c(F)cccc2F)cc(OC)c1C | 5.89
30 | O=C(O)Cn1cc(/C=C2/NC(=O)N(c3ccc(Cl)cc3)C2=O)c2ccccc21 | 12.9
31 | CN(C)S(=O)(=O)c1cccc(NC(=O)c2cc(-c3cccs3)nc3ccccc23)c1 | 3.99
32 | COc1ccccc1Nc1ncc(C(=O)Nc2ccc(OC)c(OC)c2)c2ccccc12 | 19.7
33 | Cc1cc2c(ncn2Cc2ccccc2)c([N+](=O)[O-])c1C | -20.2
34 | CC(=O)NC(c1ccccc1)c1cccnc1 (stereo not drawn) | -5.09
35 | COc1cc(CNC2CCCCCCC2)c(Br)cc1OCCO.Cl | 7
36 | N#CCCN1CCN(C(=S)c2ccc(-c3cccc(Cl)c3)o2)CC1 | -59.9
37 | CC(C)(C)c1cc(C(=O)N2CCc3ccccc32)ccn1 | 1.48
38 | Cc1c(C)c(C)c(S(=O)(=O)NCCc2ccncc2)c(C)c1C | 7.61
39 | CCCCn1c(N)c(N(Cc2ccccc2OC)C(=O)COc2ccc(C)cc2)c(=O)[nH]c1=O | 0.355
40 | NNC(=O)CSc1c(-c2ccccc2)c2cc(Cl)ccc2[nH]c1=O | 3.91
41 | Cc1ccc(CN2CCCN(Cc3ccc(C)cc3)S2(=O)=O)cc1 | 13.2
42 | Cc1ccc(CNC(=O)C(=O)NCC2OCCN2C(=O)c2ccc3c(c2)OCO3)cc1 (stereo not drawn) | -7.72
43 | CCN(CC)CCNC(=O)c1cc(-c2cccnc2)nc2ccc(S(=O)(=O)N3CCC(C)CC3)cc12 | -65.1
44 | CN(C)C=Nc1ccc(Cl)c(Cl)c1 | 14.5
45 | CCc1ccc(NC(=O)CSc2nc3ccccc3nc2N2CCCCC2)cc1 | -18.4
46 | COc1ccc(NC(=O)CSc2ncccn2)cc1S(=O)(=O)N1CCCCC1 | -10.7
47 | CCn1cc(C(=O)NCC(C)C)c(=O)c2cc(F)c(N3CCN(C(=O)c4ccco4)CC3)cc21 | -59.9
48 | CC(=O)N1CCc2cc(S(=O)(=O)Nc3cccc(C(F)(F)F)c3)ccc21 | -4.47
49 | COc1cccc(-n2nc(-c3ccnn3-c3ccc(F)cc3)c(=O)n(C)c2=O)c1 | 16
50 | CC(=O)c1cccc(NC(=O)CN(c2ccc(C)cc2)S(=O)(=O)c2cccc3nonc23)c1 | -10.1
51 | CCN(CC)c1ccc(/C=N/N2CCN(Cc3ccccc3)CC2)cc1 | -3.18
52 | CCN(CC(=O)Nc1ccc(OC)cc1)C(=O)c1cc([N+](=O)[O-])ccc1N1CCOCC1 | -15.8
53 | Cc1ccc(NNC(=S)Nc2ccc(C(C)C)cc2)c(C)c1 | -3.56
54 | COc1ccccc1NS(=O)(=O)c1cc(NC(=O)c2ccccc2F)ccc1N1CCOCC1 | 17.9
